Assay results published in paper doi:10.1101/2021.08.01.454609.

Molecular target: wild-type coilin-CFP / coilin-YFP for FRET in HeLa cells (human), P38432
Assay: FRET or BRET
Details: remark: other sources report otherwise

B1: wild-type coilin-CFP / coilin-YFP for FRET in HeLa cells (natural protein)
chain: MAASETVRLRLQFDYPPPATPHCTAFWLLVDLNRCRVVTDLISLIRQRFGFSSGAFLGLYLEGGLLPPAESARLVRDNDCLRVKLEERGVAENSVVISNGDINLSLRKAKKRAFQLEEGEETEPDCKYSKKHWKSRENNNNNEKVLDLEPKAVTDQTVSKKNKRKNKATCGTVGDDNEEAKRKSPKKKEKCEYKKKAKNPKSPKVQAVKDWANQRCSSPKGSARNSLVKAKRKGSVSVCSKESPSSSSESESCDESISDGPSKVTLEARNSSEKLPTELSKEEPSTKNTTADKLAIKLGFSLTPSKGKTSGTTSSSSDSSAESDDQCLMSSSTPECAAGFLKTVGLFAGRGRPGPGLSSQT[about 200 residues not listed]
apparent FRET efficiency: 20%
